# Among all 390,000 compounds or so, about 2,200 (0.56%) were called active. The inconclusive results got no clear call from the source; some entries with a clear call stand among them for comparison. Calls come from the whole dose curve; as a rule, active = well fitted inhibition curve with a large enough effect; inconclusive = small, poorly fitted or top-dose-only effect; inactive = no such curve, though single readings can be large or run the other way. A potency beside an inconclusive call is a rough fit, not a confirmed value.
# Biological target: Chromobox protein homolog 1 (Homo sapiens) (UniProt P83916)
# Assay: HTS for Inhibitors of HP1-beta Chromodomain Interactions with Methylated Histone Tails; note: nearly all actives have a fitted effect of over 70% in size
# Settings: AlphaScreen HP1-beta / biotin-H3K9me3 peptide binding; series mostly up to 114 µM; activity change, negative = inhibition: at the top concentration
# Method in brief: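 Compound inhibition of the preformed complex between 50 nM HP1-beta and 50 nM biotinylated H3K9me3 peptide was read by AlphaScreen. Buffer was PBS pH 7.4 with 0.01% Tween-20. Incubations ran 30 min at room temperature, with 10 ug/mL donor/acceptor beads.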
# Potency is the fitted concentration of half-maximal effect; tags give direction and shape of the fitted curve.
# Sequence of UniProt P83916 (P83916 whole entry, looked up): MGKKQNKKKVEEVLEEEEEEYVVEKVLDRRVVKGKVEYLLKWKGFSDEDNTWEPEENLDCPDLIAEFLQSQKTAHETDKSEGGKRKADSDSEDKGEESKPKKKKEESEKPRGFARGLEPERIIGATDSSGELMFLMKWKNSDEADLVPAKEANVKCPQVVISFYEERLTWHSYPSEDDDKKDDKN
SMILES,Potency,"activity change, negative = inhibition"
S=C(NCC1CCCO1)c1ccc(Br)cc1 (stereo unspecified),"inconclusive: 17.8 µM [inhibitor, full curve, poor fit]",
c1ccc(CN2CCC(N=C3NN=C(c4ccc5c(c4)OCCO5)CS3)CC2)cc1,"inconclusive: 35.5 µM [inhibitor, partial curve]",
Brc1ccc(CSc2nccn2-c2ccccc2)cc1,"inconclusive: 15.8 µM [inhibitor, full curve, poor fit]",
O=C1c2ccccc2C(=O)c2c1cccc2N1CCN(C/C=C/c2ccccc2)CC1,"inconclusive: 3.55 µM [inhibitor, full curve, poor fit]",
O=C1OC(Nc2nccs2)c2ccccc21 (stereo unspecified),,inactive: 11.2%
CCOC(=O)c1ccc(S(=O)(=O)NNC(=O)COc2cccc(C)c2)cc1,,inactive: 40.7%
C/C(=N\NC(=S)Nc1ccccc1C)c1ccc(O)cc1,"inconclusive: 8.91 µM [inhibitor, full curve]",
Cc1ccc2c(c1)c1cccc3c1n2CCN3CCC(N)=O,"inconclusive: 15.8 µM [inhibitor, full curve]",
CC(C)(c1ccccc1)c1ccc(OCC(O)CNC2CCN(Cc3ccccc3)CC2)cc1 (stereo unspecified),"inconclusive: 44.7 µM [inhibitor, partial curve, poor fit]",
CN1CCC(N(C)CC(=O)Nc2ccccc2N2CCOCC2)CC1,"inconclusive: 6.31 µM [inhibitor, partial curve, poor fit]",
CCn1c(NC(=O)C2CCCCC2)nc2ccccc21,,inactive: 28.5%
CCc1ccc(N(C(=O)c2csnn2)C(C(=O)NC(C)(C)C)c2ccncc2)cc1 (stereo unspecified),,inactive: 30.6%
CC[C@]12c3[nH]c4ccc(Cl)cc4c3CCN1C(=O)[C@@H](CC(=O)NCc1ccco1)C[C@@H]2C(=O)N1CCN(C(=O)c2ccco2)CC1,"inconclusive: 39.8 µM [inhibitor, single point]",
Brc1ccc(CN2CCCCCC2)cc1,"inconclusive: 70.8 µM [inhibitor, single point]",
COc1ccc(Nc2nc(C)cc(=O)[nH]2)cc1,,inactive: 11.8%
Cc1ccc2cccc(NC(=S)NC(=O)c3ccn(C)n3)c2n1,"inconclusive: 35.5 µM [inhibitor, single point]",
CCc1ccccc1N(C)C(=O)C1CCCN(c2ncnc3c2nc2n3CCCCC2)C1 (stereo unspecified),,inactive: 20.4%
CCn1cc(C(=O)NCCCN(C)c2ccccc2)c(=O)c2cc(S(=O)(=O)N(C)C)ccc21,,inactive: -20.8%
CC1=NN(c2ccccc2)C(=O)/C1=C\C=C\c1ccccc1,active: 10 µM,
COc1ccc(C(C[N+](=O)[O-])c2c(-c3ccccc3)cc3ccccn23)cc1 (stereo unspecified),"inconclusive: 31.6 µM [inhibitor, single point]",
Cc1ccc(NC(=O)CN(C)C2CCCCC2)cc1Br,"inconclusive: 15.8 µM [inhibitor, full curve, poor fit]",
COc1ccc2ccccc2c1CN1CCSCC1,"inconclusive: 25.1 µM [inhibitor, partial curve]",
COc1ccccc1C(CCNCc1ccc(N(C)C)cc1)c1ccc(OC(C)C)cc1 (stereo unspecified),"inconclusive: 14.1 µM [inhibitor, full curve]",

SMILES,Potency,"activity change, negative = inhibition"
COCCSc1ccccc1C(=O)N1CCc2ccccc2C1,,inactive: 40.7%
CCCNC(=O)CCn1c(-c2ccc(C)cc2)cc(C(=O)OCC)c1C,"inconclusive: 35.5 µM [inhibitor, partial curve]",
O=C(NCCCOc1cccc(CN2CCCCC2)c1)c1ccc(Cl)c(Cl)c1,"inconclusive: 50.1 µM [inhibitor, partial curve, poor fit]",
CN(C(=O)c1ccc2c(c1)C(=O)N(CCC1=CCCCC1)C2=O)C1CCCCC1,,inactive: 56.5%
Cc1cccc(NC(=S)NCCc2ccccc2)n1,,inactive: 16.6%
c1ccc(-c2cc3n(c2)CCc2ccccc2-3)cc1,,inactive: -16%
CN(C(=O)c1ccc(NC(=O)Cc2ccc(NC(=O)C3CCCN(S(=O)(=O)c4cccc([N+](=O)[O-])c4)C3)cc2)cc1)C1CCCC1 (stereo unspecified),,inactive: 26.9%
COc1ccc(CCNc2ccc(C)cc2)cc1,"inconclusive: 50.1 µM [inhibitor, partial curve]",
CCCC(C)c1nnc(NC(=O)CS(=O)(=O)Cc2ccccc2)s1 (stereo unspecified),"inconclusive: 14.1 µM [inhibitor, full curve, poor fit]",
O=[N+]([O-])c1ccc(O)c(/C=N/Nc2ccccc2Cl)c1,,inactive: -2.66%
CCc1c(C)sc2c1CCN(Cc1ccccc1F)C2c1ccccc1 (stereo unspecified),"inconclusive: 79.4 µM [inhibitor, single point]",
CC1(O)CC(c2ccc(Cl)cc2)=NN1C(=O)c1ccc([N+](=O)[O-])cc1 (stereo unspecified),"inconclusive: 44.7 µM [inhibitor, partial curve]",
COc1ccc(-n2c(=O)c3c4c(sc3n(CC(N)=O)c2=O)CCCCC4)cc1,,inactive: 34.8%
COc1cccc(Cn2cc(C(=O)c3ccc(Cl)cc3)c(=O)c3ccccc32)c1,,inactive: 19.6%
Cc1ccc(-n2c(C)csc2=N)cc1,"inconclusive: 50.1 µM [inhibitor, partial curve]",
Cc1ccccc1Nc1c(-c2ccc(N3CCOCC3)cc2)nc2ccc(Br)cn12,"inconclusive: 8.91 µM [inhibitor, full curve, poor fit]",
O=C(Nc1cc(S(=O)(=O)N2CCOCC2)ccc1N1CCCC1)c1ccc(Cl)cc1,"inconclusive: 10 µM [inhibitor, full curve]",
COc1ccc(N2CCN(C(CNS(=O)(=O)c3ccccc3)c3ccccc3)CC2)cc1 (stereo unspecified),"inconclusive: 35.5 µM [inhibitor, partial curve]",
CCN(CC)c1ccc(C(=S)N2CCN(c3ccccc3)CC2)cc1,"inconclusive: 11.2 µM [inhibitor, partial curve, poor fit]",
Fc1ccc(CN2CCCCCC2)c(F)c1,"inconclusive: 15.8 µM [inhibitor, full curve]",
Cc1ccc(S(=O)(=O)N2CCN(Cc3ccccc3Cl)CC2)cc1,"inconclusive: 14.1 µM [inhibitor, full curve, poor fit]",
Cc1ccc(-c2csc(NC(=O)CSc3nc(C)cc(=O)[nH]3)n2)cc1,,inactive: 10.9%
COC1=C(OC)C(=O)C(Sc2ccc3ccccc3c2)=CC1=O,active: 4.47 µM,
